Results from US11898187B2 (priority 2017, dated 2024).

Assays:
Format in all cases: biochemical
Conditions in all cases: 4-mer peptides, fraction modified (0-1)
[1] = test system: N-glycosyltransferase from Escherichia coli
[2] = test system: N-glycosyltransferase from Haemophilus dureyi
[3] = test system: N-glycosyltransferase from Haemophilus influenza
[4] = test system: N-glycosyltransferase from Mannheimia haemolytica

Row | Substance | MO[…] [1] | MO[…] [2] | MO[…] [3] | MO[…] [4]
1 | PNRT | 0.2163 | 0.4726 | 0.4212 | 0.8381
2 | LNVT | 0.3079 | 0.1199 | 0.06907 | 0.5358
3 | PNIS | 0.6688 | 0.4261 | 0.3922 | 0.5307
4 | TNIT | 0.2587 | 0.198 | 0.04805 | 0.461
5 | ANVT | 0.351 | 0.9007 | 0.5896 | 0.9587
6 | SNVT | 0.2133 | 0.7806 | 0.3833 | 0.9307
7 | VNAT | 0.1646 | 0.3047 | 0.1173 | 0.6726
8 | PNVT | 0.4415 | 0.8885 | 0.7954 | 0.92
9 | PNVS | 0.5449 | 0.4575 | 0.4427 | 0.6243
10 | WNHT | – | 0.3986 | 0.1403 | 0.8106
11 | ANAT | – | 0.7355 | 0.8571 | 0.8731
12 | VNVT | 0.3003 | 0.3151 | 0.161 | 0.7102
13 | PNMT | 0.4526 | 0.6581 | 0.719 | 0.8798
14 | GNWT | – | 0.623 | 0.1263 | 0.8825
15 | PNYT | 0.5173 | 0.6056 | 0.4332 | 0.8592
16 | MNVT | – | 0.2148 | 0.2572 | 0.7306
17 | LNAT | 0.1873 | 0.09237 | 0.06063 | 0.4721
18 | PNAT | 0.1833 | 0.7506 | 0.6033 | 0.8652
19 | MNIT | 0.215 | 0.1797 | 0.4326 | 0.7649
20 | SNIT | 0.2341 | 0.4091 | 0.07936 | 0.7534
21 | VNIT | 0.3983 | 0.2427 | 0.2424 | 0.5212

Row | Substance | MO[…] [1] | MO[…] [2] | MO[…] [3] | MO[…] [4]
22 | ANVS | 0.5643 | 0.5667 | 0.3783 | 0.6726
23 | PNTT | – | 0.6623 | 0.2798 | 0.8305
24 | GNVT | 0.2697 | 0.3804 | 0.05877 | 0.8433
25 | PNIT | 0.6028 | 0.8196 | 0.8725 | 0.8687
26 | ANYT | – | 0.5683 | 0.2511 | 0.9647
27 | SNYT | – | 0.1522 | 0.07481 | 0.6871
28 | SNAT | – | 0.4858 | 0.1214 | 0.8503
29 | ANQT | – | 0.08837 | 0.05717 | 0.5507
30 | ANRT | – | 0.4079 | 0.4157 | 0.8535
31 | SNVS | 0.5194 | 0.3342 | 0.1263 | 0.7537
32 | NNHT | – | 0.4136 | 0.1401 | 0.7199
33 | VNMT | 0.3718 | 0.2046 | 0.3733 | 0.644
34 | PNLT | 0.3175 | 0.5339 | 0.591 | 0.8239
35 | PNQT | – | 0.08606 | 0.06199 | 0.5452
36 | PNFT | 0.5073 | 0.5144 | 0.4645 | 0.8586
37 | NNAT | – | 0.6019 | 0.3811 | 0.8179
38 | HNAT | – | 0.1623 | 0.1576 | 0.6883
39 | TNVT | 0.1564 | 0.5375 | 0.1906 | 0.8351
40 | ANST | – | 0.6067 | 0.1596 | 0.8245
41 | ANIS | 0.4917 | 0.2419 | 0.2079 | 0.5077
42 | ANTT | – | 0.5802 | 0.1412 | 0.8112
